Source: the supplement of paper PMC7826260
This is one part of the list. The data describe in vitro nicking of single-stranded DNA by Rep domains (3 µM enzyme, 1 h, 37 °C); shown is the middle of each 90-letter strand. Numbers give uncut DNA relative to the enzyme-free pool, as log2; strong cutting gives strongly negative numbers. There is no active / inactive call. Reads are scaled to the total; uncut strands gain when others are lost, and binding without cutting may add a little.

Each sequence was assayed on T1, Rep nickase domain of tomato golden mosaic virus (assay: uncleaved DNA left, log2 of reads against the no-enzyme library (log2 ratio); higher = less cleavage (more negative = more Rep cleavage of the k-mer); sequences stand for … in CTCGTCCG…ACCGGAGA).
T1 sequence (Rep 1-124, printed without the tag): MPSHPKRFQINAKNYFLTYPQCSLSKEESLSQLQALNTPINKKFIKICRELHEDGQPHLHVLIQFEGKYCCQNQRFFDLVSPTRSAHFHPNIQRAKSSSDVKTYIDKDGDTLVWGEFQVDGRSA
Experimental: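 A pool of 90-nt single-stranded DNAs with seven random bases just before the constant AC of the nick site (name = the seven bases) was cut by 3 µM recombinant His6-SUMO-tagged Rep nickase domain (300 nM DNA, 50 mM HEPES pH 8.0, 50 mM NaCl, 1 mM MnCl2, 1 h, 37 °C, three replicates). Uncut DNA was amplified and sequenced.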
With GAGGGCC the “uncleaved DNA left (log2)” value was 0.0228.
For TCACAAT, the “uncleaved DNA left (log2)” value was 0.0943.
For AATCCTA, the “uncleaved DNA left (log2)” value was -0.0278.
In the case of GCTAGGC, the “uncleaved DNA left (log2)” value is reported as -0.00349.
GCCCCCC was tested, and the “uncleaved DNA left (log2)” value was -0.0639.
TGAAGCG was tested, and the “uncleaved DNA left (log2)” value was 0.0406.
For TACGCCA, the “uncleaved DNA left (log2)” value was -0.0713.
CGAGTTG was tested, and the “uncleaved DNA left (log2)” value was 0.0612.
GGGCAAG was tested, and the “uncleaved DNA left (log2)” value was 0.0899.
In the case of TTTACCA, the “uncleaved DNA left (log2)” value is reported as -0.0097.
TCCCCAC was tested, and the “uncleaved DNA left (log2)” value was 0.0293.
For ATACTGA, the “uncleaved DNA left (log2)” value was 0.0593.
In the case of TCACTTA, the “uncleaved DNA left (log2)” value is reported as -0.0338.
For GTCATGA, the “uncleaved DNA left (log2)” value was 0.0233.
In the case of ATGCAGA, the “uncleaved DNA left (log2)” value is reported as 0.0888.
In the case of ATCTCTA, the “uncleaved DNA left (log2)” value is reported as 0.112.
In the case of GGCACCC, the “uncleaved DNA left (log2)” value is reported as -0.109.
In the case of TTCCCGC, the “uncleaved DNA left (log2)” value is reported as -0.115.
For AAGCGCC, the “uncleaved DNA left (log2)” value was -0.000571.
With TCCGCAA the “uncleaved DNA left (log2)” value was -0.251.
In the case of CTTTTGT, the “uncleaved DNA left (log2)” value is reported as -0.00534.
With GACTCAA the “uncleaved DNA left (log2)” value was 0.091.
With ATTAAAG the “uncleaved DNA left (log2)” value was 0.0631.
In the case of CTTACTT, the “uncleaved DNA left (log2)” value is reported as -0.163.
For GGCCTCC, the “uncleaved DNA left (log2)” value was -0.0123.
In the case of AGGATAT, the “uncleaved DNA left (log2)” value is reported as 0.109.
GACATAA was tested, and the “uncleaved DNA left (log2)” value was 0.0548.
In the case of TTAACGC, the “uncleaved DNA left (log2)” value is reported as 0.0413.
For AGCCCCA, the “uncleaved DNA left (log2)” value was -0.0601.
In the case of GCTCACG, the “uncleaved DNA left (log2)” value is reported as -0.166.
TCTAGGT was tested, and the “uncleaved DNA left (log2)” value was -0.0643.
In the case of TCAGTGT, the “uncleaved DNA left (log2)” value is reported as -0.0425.
With ACGTTCG the “uncleaved DNA left (log2)” value was -0.0205.
For TATTTCC, the “uncleaved DNA left (log2)” value was -0.051.
GGGATAC was tested, and the “uncleaved DNA left (log2)” value was 0.0613.
With AGGGTGT the “uncleaved DNA left (log2)” value was 0.171.
GGGGCGC was tested, and the “uncleaved DNA left (log2)” value was 0.0613.
With TCCTTGA the “uncleaved DNA left (log2)” value was 0.0455.
CTTTTTA was tested, and the “uncleaved DNA left (log2)” value was 0.0411.
In the case of CCATCTG, the “uncleaved DNA left (log2)” value is reported as -0.0138.
